Assay results taken from PMC12040169 (PLOS Biology, 2025).
This is one part of the list.

test system: T1, C. trachomatis L2/434/Bu expressing GFP (CTL2-GFP); set-up: species or system HeLa; C. trachomatis total inclusion area by high-content imaging, normalised to DMSO; conditions: total inclusion area; 28.5 h, 10 µM; inhibitor
T1 construct: L2/434/Bu GFP intracellular growth in HeLa cells
Method in brief: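 Following bulk GFP and resorufin fluorescence reads, infected cells were fixed, Hoechst-stained and imaged on a high-content platform. Inclusion total area and number per well served as growth proxies; nuclei counts indicated host viability. MICs were derived as for the fluorescence assay.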

SMILES | % of control remaining
O=C(Oc1ccccc1)c1ccnc(Cl)c1 [CBK090322] | 61.1094
COc1ncccc1C(=O)Nc1c(C)noc1C [CBK200307] | 85.6767
O=S(=O)(Nc1cc(NCCCN2CCOCC2)c2occc2c1)c1ccccc1C(F)(F)F [CBK067838C] | 42.1859
O=C(CSc1cnn[nH]1)Nc1ccc(F)cc1 [CBK270024] | 77.6345
COc1ccc(-c2cc(C(=O)NCCc3cccc(C(F)(F)F)c3)cnc2-c2ccccc2)cn1 [CBK036662] | 108.296
Cc1nn(CC(=O)NC2CC2)c(=O)c2cc3sccc3n12 [CBK284047] | 67.7387
CCCC1=NNC(=O)C1Cc1c(F)cccc1Cl (stereo not drawn) [CBK067753] | 95.4938
CC(=O)NCCN1CCC(O)(c2ccc(C)cc2)CC1 [CBK283321] | 110.186
CC(C)OC(=O)CCNC(=O)c1cccc(S(=O)(=O)N2CCCC2)c1 [CBK306090] | 51.214
Cc1ccc(O)c(NC(=O)c2ccccc2-c2ccccc2C(=O)O)c1 [CBK266763] | 107.677
COc1ccc(CN(C(=O)c2cccc(-n3cnnn3)c2)C2CC2)cc1 [CBK256997] | 56.8197
O=[N+]([O-])c1ccc(N2CCN(Cc3ccccc3)CC2)cc1NCc1ccccc1 [CBK045841] | 88.3182
O=C(O)CSc1nc2ccccc2n2cnnc12 [CBK269831] | 86.6622
Cc1ccccc1Cn1c(CN2CCCCC2C)nc2c1c(=O)n(C)c(=O)n2C (stereo not drawn) [CBK269199] | 97.769
Cc1ccccc1NC(=O)c1c(NC(=O)Cc2ccccc2)sc2c1CCCC2 [CBK262572] | 90.6499
CC(=O)/N=c1\[nH]c(NC(C)=O)nn1-c1ccccc1 [CBK287938] | 100.633
COc1cc(C=Cc2cc(C(=O)O)c3ccccc3n2)cc(Cl)c1OC(C)C [CBK296941] | 91.2958
Cn1cnc(C(=O)N2CCC[C@@H]3NC(=O)c4ccccc4OCCCCC[C@@H]32)c1 [CBK292122] | 79.0448
Cc1cc(CN2CCC(N(C)Cc3nnc(C)n3C)C2)no1 (stereo not drawn) [CBK305088] | 40.969
CN(C)CCN(Cc1cccnc1)C(=O)C1(c2ccccc2F)CC1 [CBK282771] | 90.8931
OCCN1CCN(C(c2ccccc2)c2sc3ncnn3c2O)CC1 (stereo not drawn) [CBK287611] | 85.1281

SMILES | % of control remaining
FC(F)(F)c1ccc(Sc2ccncc2)nc1 [CBK115217] | 90.3023
Cc1cc(I)ccc1NC(=O)CCN1C(=O)c2cccc([N+](=O)[O-])c2C1=O [CBK263128] | 106.805
Cc1nc(CN2CCC(Oc3nccnc3OCc3ccc(Cl)c(Cl)c3)CC2)cs1 [CBK153787] | 89.4297
c1ccc(CNc2nc(-c3ccsc3)cn3ccnc23)cc1 [CBK037868] | 108.234
O=c1ccc2c(-c3ccsc3)ccnc2[nH]1 [CBK073724] | 97.5299
Nc1c(C(F)(F)F)cc(Cl)nc1Cl [CBK005620] | 91.6244
CCOC(=O)Nc1ccsc1C(=O)OC [CBK027880] | 147.561
O=C(O)CCC1NC(=O)N(C2CCCCC2)C1=O (stereo not drawn) [CBK287046] | 101.817
Cc1ccc(C(=O)n2c(=S)nc3ccccn32)cc1 [CBK025729] | 79.6582
COCC(=O)N1C2CCC(C2)[C@@H]1COc1ccc(F)cc1 (stereo partly drawn) [CBK284603] | 83.024
Cc1cc(C)n(CCC(=O)N2CCCC2c2nc3ccccc3[nH]2)n1 (stereo not drawn) [CBK283664] | 95.0484
CCOC(=O)c1ccccc1NC(=O)n1ccc2c(N3CCNCC3)cccc21 [CBK003731C] | 3.456
Cc1cccc(=O)n1CCCn1cc(C2CCCNC2)nn1 (stereo not drawn) [CBK306946] | 37.2985
O=C(Cn1c(-c2cccs2)cc2cccnc21)N1CCOCC1 [CBK282452] | 115.804
COC(=O)c1c(-c2ccc(F)cc2)csc1NC(=O)CSc1ncnc2sc3c(c12)CCC3 [CBK265976] | 98.9472
O=C(c1ccncc1)C12CN3CN(CN(C3)C1)C2 [CBK261451] | 112.028
COc1ccc(CCC2CCN(C)CC2)c(O)c1 [CBK283668] | 90.3952
CC(C)N(CCOc1nccnc1-c1ccsc1)C(C)C [CBK106777] | 81.3635
CCN1CC(C(=O)N2CCN(C)CC2c2ccccc2)CC1=O (stereo not drawn) [CBK282026] | 102.135
CCn1cc(C2CN(S(=O)(=O)c3cccc(C(C)C)c3)CCO2)cn1 (stereo not drawn) [CBK304227] | 54.9879
O=C(CCCc1nc(-c2ccc(Cl)cc2)no1)NCc1cccnc1 [CBK269415] | 54.7651

SMILES | % of control remaining
CN(C)CC(C)(C)CN1C2CCC1CC(O)(c1ccccc1F)C2 (stereo not drawn) [CBK282648] | 141.541
OCCN(CCO)CC1CC2C=CC1C2 (stereo not drawn) [CBK261874] | 105.011
Cn1nc(-c2ccc(S(=O)(=O)n3cc(C#N)c(N)n3)s2)cc1C(F)(F)F [CBK067237] | 87.4635
O=C(NCCN1CCOCC1)C1CCN(c2nc3c(-c4ccccc4F)csc3c(=O)[nH]2)CC1 [CBK215442] | 127.736
CCOC(=O)c1c(C)nc2n(CCN3CCCCC3)c3ccccc3n12 [CBK278238C] | 88.2932
Cc1nccn1CCNC(=O)CCc1cn(C)c2ccccc12 [CBK281962] | 112.117
COc1nc(-c2cccnc2)cn2ccnc12 [CBK093490] | 95.5
CC(=O)NCCNc1ccc(C(=O)O)cc1[N+](=O)[O-] [CBK264184] | 107.721
Cc1ccc(C(=O)O)cc1NC(=O)C(=O)NCC(c1ccccc1)N1CCN(C)CC1 (stereo not drawn) [CBK286864] | 72.498
OC1(c2cccnc2F)CCN(Cc2ccc(Cl)cc2)CC1 [CBK284368] | 81.6774
O=C(CC(C(=O)O)N1CCOCC1)Nc1ccccc1 (stereo not drawn) [CBK267008] | 102.359
CC(C)C(=O)Nc1cc2cccnc2c(-c2ccc3c(c2)CCO3)n1 [CBK081260] | 94.4814
O=C(Nc1ccc(N2CCNCC2)nc1)c1cccs1 [CBK029430T] | 108.379
O=C(Cc1c[nH]c2ccccc12)Nc1cncc(OC2CCNCC2)n1 [CBK028441T] | 96.9495
O=S(=O)(Nc1cccc(C(F)(F)F)c1)c1cc2c(N3CCNCC3)nccc2s1 [CBK039085C] | 80.8487
COc1cccc(CN2CCC3(CCCNC3=O)CC2)c1 [CBK284824] | 88.8171
CN(c1cc(F)ccc1[N+](=O)[O-])S(=O)(=O)c1ccccc1 [CBK001369] | 85.6944
COc1cccc(C(=O)N2CCCC(c3cc4ncccc4[nH]3)C2)c1 (stereo not drawn) [CBK283416] | 66.403
O=S(=O)(Oc1ccc2ccccc2c1)c1ccc2c(c1)Cc1cc(S(=O)(=O)Oc3ccc4ccccc4c3)ccc1-2 [CBK262385] | 86.6488
Cc1nnnn1CC(=O)Nc1nn(C)c2cccc(N3CCOCC3)c12 [CBK307335] | 52.4344
Cc1ccc(C(C)C)c(OCC(=O)NS(=O)(=O)c2ccc(Br)cc2)c1 [CBK268719] | 117.684

SMILES | % of control remaining
Cc1ccc(S(=O)(=O)c2ccc(C)c(S(=O)(=O)N3CCCC3)c2)cc1S(=O)(=O)N1CCCC1 [CBK261772] | 105.765
O=C(N[C@@H](Cc1ccc(OCc2ccc(Cl)cc2Cl)cc1)C(=O)O)C1CCCC1 [CBK017610] | 84.8893
Oc1ccc2ccccc2c1/C=N/Nc1nnc(-c2ccccc2)c(-c2ccccc2)n1 [CBK262005] | 105.254
Cn1ccnc1CNC(=O)c1cccc(OCC(=O)N2CCCCC2)c1 [CBK306635] | 96.0874
CCCN1CCC(NC(=O)c2cccc(S(N)(=O)=O)c2)CC1 [CBK305956] | 49.7143
COc1ccc(CN2CCN(Cc3ccc4c(c3)OCO4)CC2)c(OC)c1OC [CBK033874] | 85.8133
O=C(O)c1ccc(-n2nnnc2SCc2ccccc2)cc1 [CBK287161] | 91.8151
O=C1c2ccc(Oc3ccc4c(c3)C(=O)N(c3ccccn3)C4=O)cc2C(=O)N1c1ccccn1 [CBK261202] | 105.003
CN(C(=O)Cc1ccsc1)c1nc2c(s1)CCc1c-2cnn1C [CBK281929] | 37.1858
Cc1ncsc1C(=O)NCc1ccc(S(=O)(=O)N2CCCCC2)cc1 [CBK305556] | 97.1546
c1ccc2c(c1)nc(-c1cscn1)n2Cc1ccc(-c2nnn[nH]2)cc1 [CBK266979] | 119.262
O=C(Cn1c(C(F)(F)F)nc2ccccc21)NCCN1CCCC1 [CBK267150] | 122.501
Cc1ccc(S(=O)(=O)N(C)CC(=O)NCc2nc(-c3ccccc3)no2)cc1 [CBK268524] | 133.947
COc1ccc(C(=O)COC(=O)c2cc(-c3ccc(Cl)cc3)nc3ccc(C)cc23)cc1[N+](=O)[O-] [CBK264072] | 103.028
CCN1CCC(NC(=O)CSc2nc3ccccc3n2CC(C)C)CC1 [CBK304995] | 66.9217
CCc1nc2ccc(C(=O)N3CCN(C)CC3)cn2c1N(C)Cc1ccc(NC(C)=O)cc1 [CBK145603] | 101.069
O=c1c2ccccc2nc2c3ccccc3c(NCc3ccccn3)nn12 [CBK265964] | 88.0301
Cn1c(C(=O)N2CCc3ccccc3C2)cc2ccccc21 [CBK200337] | 102.386
